Experimental data: the supplement of paper PMC6531468
The other results are listed elsewhere or left out. These are enrichments in a pooled selection; single values are uncertain. Each score is taken over the longer molecules that contain the sequence shown.

The sequences below were run on IMP3 KH1-4 (assay: 6-mer SELEX enrichment z-score vs GST control; IMP3 is the RNA-binding protein IGF2BP3; higher = more enriched by binding). Details: construct: KH1-4 (164-579); SELEX round: R4.
Procedure: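 SELEX-seq with GST-tagged IMP3 KH1-4 (Pro164-Lys579) and an N40 RNA pool, round 4. 6-mer z-score of sequence-tag enrichment normalised to the corresponding GST SELEX round; RNA k-mers written as DNA (T for U).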

Sequence of IMP3 KH1-4 (chain, as listed by the source): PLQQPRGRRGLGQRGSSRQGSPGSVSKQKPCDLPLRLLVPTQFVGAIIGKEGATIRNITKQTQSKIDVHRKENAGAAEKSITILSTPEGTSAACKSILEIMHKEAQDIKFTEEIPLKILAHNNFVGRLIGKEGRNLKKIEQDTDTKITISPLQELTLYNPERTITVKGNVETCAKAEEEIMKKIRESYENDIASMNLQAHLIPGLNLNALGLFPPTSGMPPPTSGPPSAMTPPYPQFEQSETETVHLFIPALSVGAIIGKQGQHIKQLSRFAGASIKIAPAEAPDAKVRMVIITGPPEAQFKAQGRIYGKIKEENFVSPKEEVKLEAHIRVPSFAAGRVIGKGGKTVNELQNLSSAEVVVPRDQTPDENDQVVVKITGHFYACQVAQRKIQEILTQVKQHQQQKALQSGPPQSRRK

Sequence | 6-mer SELEX enrichment z-score
CATCGA | -0.844
AACTGT | 0.313
GCTCGT | -0.464
CGCTAC | 0.105
TCTGAC | -0.293
ACATCA | 1.71
ACCCCG | -1.16
ACAACA | 1.82

Each sequence was assayed on IMP3 RRM1-2 in the same assay as above. Details: construct: RRM1-2 (1-163); SELEX round: R2.
Sequence of IMP3 RRM1-2 (chain, as listed by the source): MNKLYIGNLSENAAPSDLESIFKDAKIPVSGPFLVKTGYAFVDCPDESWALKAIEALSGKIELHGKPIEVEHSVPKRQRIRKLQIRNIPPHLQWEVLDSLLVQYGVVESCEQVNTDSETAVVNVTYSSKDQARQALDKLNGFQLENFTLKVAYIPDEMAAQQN
Procedure: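 SELEX-seq with GST-tagged IMP3 RRM1-2 (Met1-Asn163) and an N40 RNA pool, round 2. 6-mer enrichment z-score normalised to GST SELEX. RNA written as DNA (T = U).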

Sequence | 6-mer SELEX enrichment z-score
AATACC | -1.14
CATGCT | 0.529
GCACCG | -0.136
ATTGAA | -0.842
ATGTAG | 0.115
TAAGTC | -0.013
ATCAAT | 1.9
TTCGGT | 0.442
ACATAA | 1.54
ACGTTC | -0.025
ACATAT | 1.58
CGTTTC | 0.477
CCGTGA | -0.872
GATACC | -0.737
CGGCTT | 0.499
TATGAT | -0.108

Sequence | 6-mer SELEX enrichment z-score
TAGCTC | 0.304
AGGTAG | 0.218
ATATAA | -0.131
GGGACC | -0.089
TGTGGG | 0.297
GAGAGC | -0.321
AATACA | 0.771
TGAGCG | -0.425
ATAACA | 0.746
TGATGC | -0.268
TGTTGA | -0.1
TCCTCG | 0.081
CTTCAC | 1.02
TTAATT | 0.187
CAGTGA | -0.147

What follows are sequences tested against IMP3 full-length (UniProt O00425) in the same assay as above. Details: construct: FL IMP3 (1-579); SELEX round: R4.
Sequence of UniProt O00425 (O00425 whole entry): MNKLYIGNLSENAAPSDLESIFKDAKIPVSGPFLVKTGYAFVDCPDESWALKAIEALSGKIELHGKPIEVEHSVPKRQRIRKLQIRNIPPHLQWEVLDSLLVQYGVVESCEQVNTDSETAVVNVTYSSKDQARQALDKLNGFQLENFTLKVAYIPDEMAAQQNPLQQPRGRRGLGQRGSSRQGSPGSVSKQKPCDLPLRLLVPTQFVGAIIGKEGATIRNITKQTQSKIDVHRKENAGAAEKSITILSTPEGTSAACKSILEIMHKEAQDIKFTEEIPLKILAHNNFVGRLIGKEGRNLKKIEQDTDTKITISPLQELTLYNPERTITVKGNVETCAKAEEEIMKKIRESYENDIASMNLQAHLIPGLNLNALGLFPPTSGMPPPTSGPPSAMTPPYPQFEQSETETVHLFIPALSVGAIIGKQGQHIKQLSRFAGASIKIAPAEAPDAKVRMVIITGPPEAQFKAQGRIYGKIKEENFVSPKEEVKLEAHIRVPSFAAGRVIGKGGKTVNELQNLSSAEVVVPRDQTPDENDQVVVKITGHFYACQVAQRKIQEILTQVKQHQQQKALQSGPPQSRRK
Procedure: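 SELEX-seq with GST-tagged full-length IMP3 and an N40 RNA pool, round 4. Each 6-mer is scored as an enrichment z-score of sequence tags containing it, normalised to the matching GST SELEX round. RNA written as DNA (T = U).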

Sequence | 6-mer SELEX enrichment z-score
AATACC | -1.3
CATGCT | 0.496
GCACCG | 1.07
ATTGAA | -0.371
ATGTAG | -0.151
TAAGTC | 0.123
ATCAAT | 1.84
TTCGGT | 0.248
ACATAA | 2.24
ACGTTC | -0.172
ACATAT | 1.9
CGTTTC | -0.066
CCGTGA | -0.447
GATACC | -0.991
CGGCTT | 0.587
TATGAT | -0.021

Sequence | 6-mer SELEX enrichment z-score
TAGCTC | 0.047
AGGTAG | 0.006
ATATAA | 0.402
GGGACC | -0.222
TGTGGG | 0.245
GAGAGC | -0.359
AATACA | 1.72
TGAGCG | -3.62
ATAACA | 1.82
TGATGC | -0.374
TGTTGA | -0.443
TCCTCG | 0.083
CTTCAC | 0.452
TTAATT | 0.288
CAGTGA | 0.278

Each sequence was assayed on IMP3 KH1-2 in the same assay as above. Details: construct: KH1-2 (164-376); SELEX round: R4.
Sequence of IMP3 KH1-2 (chain, as listed by the source): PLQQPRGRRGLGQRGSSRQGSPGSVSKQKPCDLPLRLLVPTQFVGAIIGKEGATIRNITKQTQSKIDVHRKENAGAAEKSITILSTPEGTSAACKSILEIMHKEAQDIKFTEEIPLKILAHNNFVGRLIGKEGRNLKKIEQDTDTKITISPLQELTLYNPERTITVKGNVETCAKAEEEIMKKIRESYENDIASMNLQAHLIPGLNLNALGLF
Procedure: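 SELEX-seq with GST-tagged IMP3 KH1-2 (Pro164-Phe376) and an N40 RNA pool, round 4 (stringent 300/600 mM KCl washes). 6-mer z-score of sequence-tag enrichment normalised to the corresponding GST SELEX round; RNA k-mers written as DNA (T for U).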

Sequence | 6-mer SELEX enrichment z-score
AATACC | -0.993
CATGCT | 0.398
GCACCG | 0.31
ATTGAA | 0.606
ATGTAG | 0.08
TAAGTC | 0.15
ATCAAT | 1.45
TTCGGT | 0.037
ACGTTC | -0.468
CGTTTC | -0.453
CCGTGA | -0.208
CGGCTT | 0.315
TATGAT | 1
TAGCTC | -0.06
AGGTAG | -0.149
TCTGAC | -0.175
ACATCA | 1.78
ATATAA | 2.28
GGGACC | -0.611
TGTGGG | 0.485
GAGAGC | -1.17
TGATGC | -0.211
TGTTGA | -0.327
TCCTCG | -0.187
CTTCAC | 0.68
TTAATT | 1.25
CAGTGA | 0.24

These sequences were tested on IMP3 KH3-4 in the same assay as above. Details: construct: KH3-4 (377-579); SELEX round: R4.
Sequence of IMP3 KH3-4 (chain, as listed by the source): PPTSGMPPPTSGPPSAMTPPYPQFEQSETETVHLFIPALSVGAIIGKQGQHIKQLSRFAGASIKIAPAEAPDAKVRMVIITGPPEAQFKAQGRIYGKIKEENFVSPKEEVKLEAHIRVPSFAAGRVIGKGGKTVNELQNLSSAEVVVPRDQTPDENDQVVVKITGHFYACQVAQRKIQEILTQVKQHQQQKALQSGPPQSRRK
Procedure: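 SELEX-seq with GST-tagged IMP3 KH3-4 (Pro377-Lys579) and an N40 RNA pool, round 4. 6-mer z-score of sequence-tag enrichment normalised to the corresponding GST SELEX round; RNA k-mers written as DNA (T for U).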

Sequence | 6-mer SELEX enrichment z-score
CATCGA | -1.13
AACTGT | 0.228
GCTCGT | -0.242
CGCTAC | -0.128
TAAGTC | 0.35
TCTGAC | -0.464
ACATCA | 0.735
ACCCCG | -1.76
TGATGC | -0.056
TTAATT | 2.01
ACAACA | 1.48
